The chains are these.
B1: Caulobacter ParB omega fusion; a variant is named by its letters at X, in order, B8GW30 (parent)
chain: MESVVVGEPGMSEGRRGLGRGLSALLGEVDAAPAQAPGEQLGGSREAPIEILQRNPDQPRRTFREEDLEDLSNSIREKGVLQPILVRPSPDTAGEYQIVAGERAWRAAQRAGLKTVPIMVRELDDLAVLEIGIIENVQRADLNVLEEALSYKVLMEKFERTQENIAQTIGKSXSHVANXMRLLXLPDEVQSYLVSGELTAXHARAIAAAADPVALAKQIIEGGLSVRETEALARKAPNLSAGKSKGGRPPRVKDTDTQALESDLSSVLGLDVSIDHRGSTGTLTITYATLEQLDDLCNRLTRGI

The text below walks through data of a collection of fitness landscapes (doi:10.1016/j.celrep.2020.107928).

Over roughly 81,000 sequences, “one-hybrid fitness for binding NBS DNA” has its median near -0.1; the highest 2% begin near 0.36. This is one part of the list.

The variants in the experiment derive from B1. As to the kind of experiment: one-hybrid fitness for binding NBS DNA (the Noc-binding site; scaled: cognate 1, non-cognate 0); higher = stronger binding. The following applies: with NBS DNA site. The method in brief: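 Fitness is the rescaled log change in variant-to-wild-type read ratio, measured by Illumina sequencing of plasmids before and after bacterial one-hybrid selection. The scale puts cognate at 1 and non-cognate at 0. Selection of Caulobacter ParB libraries, four specificity codons randomised, took place in E. coli USO with a HIS3 reporter, site 19 bp from the promoter, over 48 hours at 37°C on M9-minus-histidine with 0.1 mM IPTG and 5 mM 3-AT.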
Turning to RVNC, the “one-hybrid fitness for binding NBS DNA” value is ≤ 0.2.

Take SVCE: the “one-hybrid fitness for binding NBS DNA” value is ≤ 0.2.

For ENPQ, the “one-hybrid fitness for binding NBS DNA” value was ≤ 0.2.

As to QIFV, the “one-hybrid fitness for binding NBS DNA” value is ≤ 0.2.

Turning to EPGI, the “one-hybrid fitness for binding NBS DNA” value was ≤ 0.2.

Take HYQS: the “one-hybrid fitness for binding NBS DNA” value was ≤ 0.2.

Turning to SMRF, the “one-hybrid fitness for binding NBS DNA” value is ≤ 0.2.

For IHKY, the “one-hybrid fitness for binding NBS DNA” value was ≤ 0.2.

Take PPCE: the “one-hybrid fitness for binding NBS DNA” value was ≤ 0.2.

On to QEGF, for which the “one-hybrid fitness for binding NBS DNA” value was ≤ 0.2.

Consider RTEI, for which the “one-hybrid fitness for binding NBS DNA” value is ≤ 0.2.

Regarding VEMR, the “one-hybrid fitness for binding NBS DNA” value was ≤ 0.2.

As to RQPV, the “one-hybrid fitness for binding NBS DNA” value was ≤ 0.2.

For AHSN, the “one-hybrid fitness for binding NBS DNA” value was ≤ 0.2.

Regarding VDCA, the “one-hybrid fitness for binding NBS DNA” value is ≤ 0.2.

Turning to ANRP, the “one-hybrid fitness for binding NBS DNA” value was ≤ 0.2.

For the variant NHGT, the “one-hybrid fitness for binding NBS DNA” value was ≤ 0.2.

Regarding MSAR, the “one-hybrid fitness for binding NBS DNA” value was ≤ 0.2.

Take EVMS: the “one-hybrid fitness for binding NBS DNA” value is ≤ 0.2.

For DNKF, the “one-hybrid fitness for binding NBS DNA” value is ≤ 0.2.

As to CLQW, the “one-hybrid fitness for binding NBS DNA” value was ≤ 0.2.

Turning to RVYK, the “one-hybrid fitness for binding NBS DNA” value was ≤ 0.2.

On to HVNC, for which the “one-hybrid fitness for binding NBS DNA” value was ≤ 0.2.

As to WADV, the “one-hybrid fitness for binding NBS DNA” value is ≤ 0.2.

As to LHSC, the “one-hybrid fitness for binding NBS DNA” value is ≤ 0.2.

As for ECAY, the “one-hybrid fitness for binding NBS DNA” value is ≤ 0.2.

As to WRIG, the “one-hybrid fitness for binding NBS DNA” value was ≤ 0.2.

On to LNTM, for which the “one-hybrid fitness for binding NBS DNA” value was ≤ 0.2.

Take AHCL: the “one-hybrid fitness for binding NBS DNA” value is ≤ 0.2.

In the case of PSHQ, the “one-hybrid fitness for binding NBS DNA” value was ≤ 0.2.

In the case of EPAG, the “one-hybrid fitness for binding NBS DNA” value was ≤ 0.2.

Consider QKGV, for which the “one-hybrid fitness for binding NBS DNA” value is ≤ 0.2.

With WESY, the “one-hybrid fitness for binding NBS DNA” value was ≤ 0.2.

Consider SGVL, for which the “one-hybrid fitness for binding NBS DNA” value was ≤ 0.2.

Regarding PKMM, the “one-hybrid fitness for binding NBS DNA” value was ≤ 0.2.

Take MRRE: the “one-hybrid fitness for binding NBS DNA” value is ≤ 0.2.

Regarding VRQT, the “one-hybrid fitness for binding NBS DNA” value was ≤ 0.2.

As for ASAK, the “one-hybrid fitness for binding NBS DNA” value was ≤ 0.2.

As to LDAA, the “one-hybrid fitness for binding NBS DNA” value is ≤ 0.2.

As to CLLD, the “one-hybrid fitness for binding NBS DNA” value is ≤ 0.2.

Consider LPEA, for which the “one-hybrid fitness for binding NBS DNA” value is ≤ 0.2.

Turning to DPRT, the “one-hybrid fitness for binding NBS DNA” value was ≤ 0.2.

For QMAH, the “one-hybrid fitness for binding NBS DNA” value was 0.231.

On to WAQG, for which the “one-hybrid fitness for binding NBS DNA” value is ≤ 0.2.

Regarding RTHR, the “one-hybrid fitness for binding NBS DNA” value amounted to 0.631.

With ERWT, the “one-hybrid fitness for binding NBS DNA” value was ≤ 0.2.

For the variant WMEK, the “one-hybrid fitness for binding NBS DNA” value is ≤ 0.2.

As to YPWN, the “one-hybrid fitness for binding NBS DNA” value is ≤ 0.2.

Take RVSK: the “one-hybrid fitness for binding NBS DNA” value is ≤ 0.2.

As to PWAD, the “one-hybrid fitness for binding NBS DNA” value is ≤ 0.2.

WMPF: the “one-hybrid fitness for binding NBS DNA” value was ≤ 0.2.

Take PVNK: the “one-hybrid fitness for binding NBS DNA” value is ≤ 0.2.

TPRM: the “one-hybrid fitness for binding NBS DNA” value was ≤ 0.2.

Turning to FYGG, the “one-hybrid fitness for binding NBS DNA” value was ≤ 0.2.

In the case of GAHS, the “one-hybrid fitness for binding NBS DNA” value is ≤ 0.2.

Regarding CAHT, the “one-hybrid fitness for binding NBS DNA” value was ≤ 0.2.

For the variant RHWN, the “one-hybrid fitness for binding NBS DNA” value is ≤ 0.2.

With ADQV, the “one-hybrid fitness for binding NBS DNA” value is ≤ 0.2.

In the case of RFTD, the “one-hybrid fitness for binding NBS DNA” value was ≤ 0.2.

In the case of LCAF, the “one-hybrid fitness for binding NBS DNA” value was ≤ 0.2.

For MLRV, the “one-hybrid fitness for binding NBS DNA” value is ≤ 0.2.

Regarding VPGE, the “one-hybrid fitness for binding NBS DNA” value is ≤ 0.2.

Consider YWMT, for which the “one-hybrid fitness for binding NBS DNA” value is ≤ 0.2.

As for RMGI, the “one-hybrid fitness for binding NBS DNA” value was ≤ 0.2.

In the case of NLWV, the “one-hybrid fitness for binding NBS DNA” value is ≤ 0.2.

As for ITIY, the “one-hybrid fitness for binding NBS DNA” value is ≤ 0.2.

Turning to KYRF, the “one-hybrid fitness for binding NBS DNA” value is ≤ 0.2.

Turning to MWMS, the “one-hybrid fitness for binding NBS DNA” value was ≤ 0.2.

Turning to VMYR, the “one-hybrid fitness for binding NBS DNA” value was ≤ 0.2.

SASG: the “one-hybrid fitness for binding NBS DNA” value was ≤ 0.2.

CGML: the “one-hybrid fitness for binding NBS DNA” value is ≤ 0.2.

For YIIN, the “one-hybrid fitness for binding NBS DNA” value is ≤ 0.2.

For the variant MHVD, the “one-hybrid fitness for binding NBS DNA” value is ≤ 0.2.

Turning to QCPH, the “one-hybrid fitness for binding NBS DNA” value is ≤ 0.2.

In the case of ATEE, the “one-hybrid fitness for binding NBS DNA” value was ≤ 0.2.

On to QQQI, for which the “one-hybrid fitness for binding NBS DNA” value is ≤ 0.2.

For AGYS, the “one-hybrid fitness for binding NBS DNA” value is ≤ 0.2.

MHNL: the “one-hybrid fitness for binding NBS DNA” value is ≤ 0.2.

With SMVS, the “one-hybrid fitness for binding NBS DNA” value is ≤ 0.2.

With CSNW, the “one-hybrid fitness for binding NBS DNA” value is ≤ 0.2.

HTTS: the “one-hybrid fitness for binding NBS DNA” value was ≤ 0.2.

DHMT: the “one-hybrid fitness for binding NBS DNA” value was ≤ 0.2.

Regarding GEVR, the “one-hybrid fitness for binding NBS DNA” value is ≤ 0.2.

Take SRKK: the “one-hybrid fitness for binding NBS DNA” value is ≤ 0.2.

Turning to CVHY, the “one-hybrid fitness for binding NBS DNA” value was ≤ 0.2.

Turning to EPTS, the “one-hybrid fitness for binding NBS DNA” value is ≤ 0.2.

For the variant ITST, the “one-hybrid fitness for binding NBS DNA” value is ≤ 0.2.

Regarding PRGF, the “one-hybrid fitness for binding NBS DNA” value is ≤ 0.2.

For EKDR, the “one-hybrid fitness for binding NBS DNA” value is ≤ 0.2.

On to IYSS, for which the “one-hybrid fitness for binding NBS DNA” value is ≤ 0.2.

As to VKEG, the “one-hybrid fitness for binding NBS DNA” value was ≤ 0.2.

On to AHPN, for which the “one-hybrid fitness for binding NBS DNA” value was ≤ 0.2.

Turning to HSQC, the “one-hybrid fitness for binding NBS DNA” value was ≤ 0.2.

On to DRVR, for which the “one-hybrid fitness for binding NBS DNA” value is ≤ 0.2.

Take AVKY: the “one-hybrid fitness for binding NBS DNA” value is ≤ 0.2.

For the variant RQRD, the “one-hybrid fitness for binding NBS DNA” value was ≤ 0.2.

With RTMP, the “one-hybrid fitness for binding NBS DNA” value was ≤ 0.2.

With QCTS, the “one-hybrid fitness for binding NBS DNA” value was 0.458.

With IATM, the “one-hybrid fitness for binding NBS DNA” value was ≤ 0.2.

With CQTL, the “one-hybrid fitness for binding NBS DNA” value was ≤ 0.2.

Take KRTA: the “one-hybrid fitness for binding NBS DNA” value is 0.355.

For the variant AYTS, the “one-hybrid fitness for binding NBS DNA” value is ≤ 0.2.

In the case of NMGR, the “one-hybrid fitness for binding NBS DNA” value is ≤ 0.2.

As to CHQM, the “one-hybrid fitness for binding NBS DNA” value is ≤ 0.2.

FSIT: the “one-hybrid fitness for binding NBS DNA” value was ≤ 0.2.

As to SAIT, the “one-hybrid fitness for binding NBS DNA” value was ≤ 0.2.

On to AVHW, for which the “one-hybrid fitness for binding NBS DNA” value is ≤ 0.2.

Turning to WRHR, the “one-hybrid fitness for binding NBS DNA” value is ≤ 0.2.

Regarding HCAW, the “one-hybrid fitness for binding NBS DNA” value was ≤ 0.2.

NKWE: the “one-hybrid fitness for binding NBS DNA” value is ≤ 0.2.

QNIV: the “one-hybrid fitness for binding NBS DNA” value is ≤ 0.2.

Turning to LSHH, the “one-hybrid fitness for binding NBS DNA” value is ≤ 0.2.

As for MFKT, the “one-hybrid fitness for binding NBS DNA” value was ≤ 0.2.

In the case of TFDS, the “one-hybrid fitness for binding NBS DNA” value is ≤ 0.2.

As for QEMV, the “one-hybrid fitness for binding NBS DNA” value was ≤ 0.2.

As for FDRG, the “one-hybrid fitness for binding NBS DNA” value is ≤ 0.2.

Regarding DCNV, the “one-hybrid fitness for binding NBS DNA” value was ≤ 0.2.

Turning to YYIS, the “one-hybrid fitness for binding NBS DNA” value was ≤ 0.2.

For the variant GFTV, the “one-hybrid fitness for binding NBS DNA” value is ≤ 0.2.

NGKG: the “one-hybrid fitness for binding NBS DNA” value was ≤ 0.2.

On to HMNT, for which the “one-hybrid fitness for binding NBS DNA” value is ≤ 0.2.

Take AKPV: the “one-hybrid fitness for binding NBS DNA” value is ≤ 0.2.

With HLGE, the “one-hybrid fitness for binding NBS DNA” value was ≤ 0.2.

Turning to ESCC, the “one-hybrid fitness for binding NBS DNA” value is ≤ 0.2.

For CARR, the “one-hybrid fitness for binding NBS DNA” value was ≤ 0.2.

As to EGER, the “one-hybrid fitness for binding NBS DNA” value is ≤ 0.2.

Regarding GNAC, the “one-hybrid fitness for binding NBS DNA” value is ≤ 0.2.

For the variant DCHN, the “one-hybrid fitness for binding NBS DNA” value is ≤ 0.2.

On to EDPF, for which the “one-hybrid fitness for binding NBS DNA” value was ≤ 0.2.

Take ILYQ: the “one-hybrid fitness for binding NBS DNA” value was ≤ 0.2.

Turning to DHTF, the “one-hybrid fitness for binding NBS DNA” value was ≤ 0.2.

Turning to KGDG, the “one-hybrid fitness for binding NBS DNA” value is ≤ 0.2.

For VWGT, the “one-hybrid fitness for binding NBS DNA” value was ≤ 0.2.

Turning to WCNS, the “one-hybrid fitness for binding NBS DNA” value is ≤ 0.2.

Regarding IGKG, the “one-hybrid fitness for binding NBS DNA” value was ≤ 0.2.

For NWRM, the “one-hybrid fitness for binding NBS DNA” value was ≤ 0.2.

As for YKAC, the “one-hybrid fitness for binding NBS DNA” value is ≤ 0.2.

Regarding ATPP, the “one-hybrid fitness for binding NBS DNA” value was ≤ 0.2.

In the case of TLVM, the “one-hybrid fitness for binding NBS DNA” value was ≤ 0.2.

As to MTSD, the “one-hybrid fitness for binding NBS DNA” value is ≤ 0.2.

With TIHV, the “one-hybrid fitness for binding NBS DNA” value is ≤ 0.2.

On to DLEL, for which the “one-hybrid fitness for binding NBS DNA” value is ≤ 0.2.

Consider GLYS, for which the “one-hybrid fitness for binding NBS DNA” value is ≤ 0.2.

As to NHGV, the “one-hybrid fitness for binding NBS DNA” value was ≤ 0.2.

For the variant HCQR, the “one-hybrid fitness for binding NBS DNA” value was ≤ 0.2.

In the case of TSYF, the “one-hybrid fitness for binding NBS DNA” value was ≤ 0.2.

In the case of YGNV, the “one-hybrid fitness for binding NBS DNA” value was ≤ 0.2.

Regarding RWFC, the “one-hybrid fitness for binding NBS DNA” value was ≤ 0.2.

For the variant NRWE, the “one-hybrid fitness for binding NBS DNA” value was ≤ 0.2.

As to SSWG, the “one-hybrid fitness for binding NBS DNA” value is ≤ 0.2.

For RQMG, the “one-hybrid fitness for binding NBS DNA” value was ≤ 0.2.

Take QKVR: the “one-hybrid fitness for binding NBS DNA” value came to 0.423.

With LESG, the “one-hybrid fitness for binding NBS DNA” value was ≤ 0.2.
